Read-outs that look alike come from different tables or passages of the source. Bridge positions count the residues as written; N and C are the ends. Square brackets hold non-standard residues; d marks the D form. Ends that are not written are not given here. Peptide text beside a SMILES is read from it.

Series [1] relates to p6 cells. The following applies: 48 hours in SFM after stimulation with 20 ng/ml IGF-1.
Series [2] has as its system cells in culture. The series can be described thus: Growth, toxicity and reversibility in cells in culture (summary statements). Format: cell-based. The source says:
Using the amino acid sequence of IGF-1, and the molecular modelling described above, we have synthesized short peptides which function as analogs of IGF-1. A peptide that was synthesized to comprise the last 12 amino acids of the IGF-1 sequence, when used at nanogram concentrations, completely abolishes the proliferation of a variety of cells. The peptide is non-toxic, i.e., the cells exposed to it remain viable for long periods of time. The inhibitor effect is also reversible, i.e., when the peptide is removed and growth factors are added again, the cells resume proliferation. Inhibition is close to 100%, and it should apply to all cells that require the IGF-1/IGF-1 receptor interaction for growth. These cells include the following: fibroblasts, smooth muscle cells, chondrocytes and osteoblasts, hemopoietic cells of various lineages and keratinocytes. Several of these cell types have been actually tested, and the inhibition by the IGF-1 analog is efficient (almost 100%), and reproducible. For instance, when using the IGF-1 analog, we have inhibited the growth of fibroblasts, and fibroblast-like cells, of T-lymphocytes and of epithelial cells derived from carcinoma of the prostate.
These peptides are nontoxic at the concentrations used (up to 5 μg/ml) and their effect is reversible. They inhibit a variety of cell types, as predicted from the finding that the activation of the IGF-1 receptor is required for the growth of many normal and transformed cells.

Series [3] has as its system WI-38 human diploid fibroblasts. The series can be described thus: Growth of WI-38 cells in serum-supplemented medium. The series is classed as cell-based. The following applies: 500 ng/ml, 10% FBS, 48 hours. The procedure:
After treatment, the cells were stimulated with 10% FBS.
In these experiments, the inhibitory effect of JB3 (D-amino acids) was tested in serum-supplemented medium. […] The same results were obtained with p6 cells (FIG. 7) and with two lines of prostatic carcinoma cells, DU48 and PC3 (FIG. 8).

On to `C[C@@H](O)[C@@H]1NC(=O)CNC(=O)[C@@H](N)CSSC[C@H](C(=O)O)NC(=O)[C@H](CCCNC(=N)N)NC(=O)[C@H](CCCNC(=N)N)NC(=O)[C@H](CO)NC(=O)[C@H](CO)NC(=O)[C@H](CO)NC(=O)CNC(=O)[C@H](Cc2ccc(O)cc2)NC(=O)CNC1=O` [JB2] (H-CGTGYGSSSRR[dC]-OH; disulfide 1-12), for which the “inhibition of growth of IGF-1-stimulated p6 cells” value in series [1] (1 μg/ml peptide) is listed as “approximately 80%”.
As to “Cys Ser Lys Ala Pro Lys Leu Pro Ala Ala Tyr Cys ([dC][dS][dK][dA][dP][dK][dL][dP][dA][dA][dY][dC]; disulfide 1-12 (inferred)) [JB3]”, in series [2], the “inhibitory effect on the growth of cells in culture” value is recorded as “profound inhibitory effect” and the “reversibility of the inhibitory effect” value was “reversible”. For the same molecule, in series [2] (at the concentrations used (up to 5 μg/ml)), the toxicity to cells result is reported as “nontoxic”. Further, in series [2] (presence of serum), the “activity in the presence of serum” value is given as “active”. The “suppression of growth of WI-38 cells” value in series [3] is listed as “completely suppresses”. The “inhibition of growth of IGF-1-stimulated p6 cells” value in series [1] (500 ng/ml peptide) is “completely inhibits”.

These data come from patent publication US5473054A, “IGF-1 analogs” (Thomas Jefferson University, priority 1994, dated 1995).
